Test results from article PMC4336329 (PLoS ONE, 2015).
Hit rate of the full screen: of about 310,000 compounds, about 2,200 (0.71%) showed an effect of 50% or more. Effects have a minus sign here. The list shows a part of the results.

Each compound was assayed against human ether-à-go-go-related gene (hERG) potassium channel (human, UniProt Q12809) (assay: primary screen, population patch clamp on CHO cells stably expressing hERG).
Sequence of human ether-à-go-go-related gene (hERG) potassium channel (Q12809 whole entry, looked up): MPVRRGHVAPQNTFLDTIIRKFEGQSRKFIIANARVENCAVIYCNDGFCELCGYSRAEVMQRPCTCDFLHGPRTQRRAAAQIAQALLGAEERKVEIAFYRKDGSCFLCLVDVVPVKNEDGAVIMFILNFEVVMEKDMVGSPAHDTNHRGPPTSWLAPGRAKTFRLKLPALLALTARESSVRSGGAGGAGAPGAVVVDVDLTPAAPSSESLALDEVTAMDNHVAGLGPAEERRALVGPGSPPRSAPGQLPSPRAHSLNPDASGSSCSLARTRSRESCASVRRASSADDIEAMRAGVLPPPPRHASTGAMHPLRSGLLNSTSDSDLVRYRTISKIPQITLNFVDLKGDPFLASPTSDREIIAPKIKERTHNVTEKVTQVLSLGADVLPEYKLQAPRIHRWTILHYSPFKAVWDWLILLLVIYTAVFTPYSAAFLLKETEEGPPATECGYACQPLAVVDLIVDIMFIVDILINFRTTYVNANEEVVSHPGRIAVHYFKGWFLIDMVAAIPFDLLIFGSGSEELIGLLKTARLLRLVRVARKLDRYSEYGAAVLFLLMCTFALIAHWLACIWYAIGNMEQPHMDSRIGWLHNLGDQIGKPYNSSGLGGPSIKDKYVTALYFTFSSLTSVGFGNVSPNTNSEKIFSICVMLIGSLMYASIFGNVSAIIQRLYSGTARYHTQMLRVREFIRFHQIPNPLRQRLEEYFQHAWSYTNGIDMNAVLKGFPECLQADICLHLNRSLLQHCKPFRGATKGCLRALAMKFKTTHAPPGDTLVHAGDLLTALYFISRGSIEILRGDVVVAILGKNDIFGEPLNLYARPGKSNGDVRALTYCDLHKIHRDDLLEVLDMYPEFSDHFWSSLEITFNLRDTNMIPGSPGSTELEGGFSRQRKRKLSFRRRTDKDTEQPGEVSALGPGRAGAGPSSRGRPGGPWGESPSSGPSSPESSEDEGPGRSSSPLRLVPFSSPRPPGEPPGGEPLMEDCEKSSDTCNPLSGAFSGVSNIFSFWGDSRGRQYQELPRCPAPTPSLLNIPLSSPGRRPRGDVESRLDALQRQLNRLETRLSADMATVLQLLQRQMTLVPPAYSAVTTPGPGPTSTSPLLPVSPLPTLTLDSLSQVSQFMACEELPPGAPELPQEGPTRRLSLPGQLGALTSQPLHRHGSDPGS

Row | SMILES | hERG current change (%, negative = inhibition) at 1uM [%]
1 | COc1ccc(NC(=O)CC2C(=O)OCC3CCCCN32)cc1Cl (stereo not shown) | -2.17
2 | CCOc1cccc(CN2CCC(n3nccc3NC(=O)c3ccc4c(c3)OCO4)CC2)c1 | -1.26
3 | CC(C)OCCCN1CN(S(=O)(=O)c2ccccc2)c2nc3ccccc3nc21 | 12.3
4 | O=C(Nc1nc2nccc(-c3ccccc3)n2n1)c1ccccc1 | 2.61
5 | Cc1cc(-c2cccc([N+](=O)[O-])c2)nc2ccccc12 | -1.23
6 | CC(=O)c1cccc(NS(=O)(=O)N2CCOCC2)c1 | 5.09
7 | Cc1ccc(N2C(=O)c3cccc4c(N5CCN(C)CC5)ccc(c34)C2=O)c2cccnc12 | 13.4
8 | COc1ccccc1/C=N/n1nnnc1N | 14.2
9 | CCCCN1C(=O)/C(=C/c2ccc(N(C)C)cc2)C(=O)N(Cc2ccco2)C1=O | 11.5
10 | O=C(NNc1nc2ccccc2s1)Nc1ccccc1 | 2.55
11 | Cc1c(NC(=O)/C(C#N)=C\c2cccs2)c(=O)n(-c2ccccc2)n1C | 4.97
12 | COc1cc(/C=C2\SC(=S)N(c3cccnc3)C2=O)ccc1O | 10
13 | O=[N+]([O-])c1ccc(N2CCCC2)cc1NC1CC1 | 8.12
14 | CC(c1ccccc1)n1c(N2CCNCC2)nc2c1c(=O)[nH]c(=O)n2C (stereo not shown) | 7.28
15 | COc1ccc(CNC(=O)CN(C(=O)CCC(=O)Nc2ccccn2)c2ccccc2OC)cc1 | 5.56
16 | C=C1CCN([C@@H](Cc2ccccc2)C(=O)NCc2ccccc2)S(=O)(=O)c2ccccc21 | 9.01
17 | Cc1ccc(-n2nc(C)c(C(=O)N3CCN(C(=O)c4ccco4)CC3)c2-n2cccc2)cc1 | 12.3
18 | CC(C)[C@@H](C(=O)N[C@@H](C(=O)O)c1ccccc1)N1C(=O)N2CCc3c([nH]c4ccccc34)[C@@]2(C)C1=O | 11.8
19 | CN(CC(=O)Nc1ccccc1Cl)CC(=O)N1CCc2ccccc21 | 3.55
20 | COc1cc(/C=c2\s/c(=C\C(=O)C(C)(C)C)[nH]c2=O)cc(OC)c1OC | 5.12
21 | CC1CCCCC1NC(=O)Cn1nc(-c2ccccc2)ccc1=O (stereo not shown) | 6.19
22 | COc1cc(OC)c(NS(=O)(=O)c2cc3[nH]c(=O)c(=O)[nH]c3cc2C)cc1Cl | 16.9

Row | SMILES | hERG current change (%, negative = inhibition) at 1uM [%]
23 | COc1ccccc1/C=C/C=N/n1c(-c2ccccn2)n[nH]c1=S | 10.8
24 | CSCCC(NS(=O)(=O)c1ccc(C)cc1)C(=O)Nc1ccc(C)cn1 (stereo not shown) | 3.64
25 | CCOC(=O)/C=C1\CN(C(C)c2ccccc2)S(=O)(=O)c2ccccc21 (stereo not shown) | 10.2
26 | Cc1cc(C)c2c(=O)n(CC(=O)Nc3cccc(Cl)c3C)sc2n1 | 8.78
27 | C=C(C)CSc1nnc2[nH]c(=O)cc(N)n12 | 14.6
28 | c1ccc(P(c2ccccc2)c2ccccn2)cc1 | 11.1
29 | CC(C)CNc1nc(Oc2ccc(=O)[nH]n2)nc(N2CCOCC2)n1 | 7.59
30 | CC(C)N(Cc1cc2ccccc2[nH]c1=O)C(=O)C1CCCCC1 | -1.03
31 | O=C(Cn1cnc(S(=O)(=O)N2CCCCC2)c1)NCc1ccco1 | 9.97
32 | CCCN(C(=O)COC(=O)c1[nH]c(C)c(C(=O)OC)c1C)c1c(N)n(Cc2ccccc2)c(=O)[nH]c1=O | 12.7
33 | O=C(O)Cn1nc(-c2ccc(F)cc2)oc1=O | 13.3
34 | COc1cc(NC(=O)CN(c2ccc(C)cc2)S(=O)(=O)c2c(C)noc2C)cc(OC)c1 | 11.9
35 | Cc1noc(C)c1COC(=O)c1cnc(Cl)c(Cl)c1 | 3.32
36 | O=C(CSc1ncnc2ccccc12)NCc1ccc2c(c1)OCO2 | 3.3
37 | C[N+](C)(CC#Cc1ccccc1)CC(=O)c1ccccc1.[Br-] | 8.78
38 | O=c1[nH]ncc2c3ccccc3n(Cc3ccccc3)c12 | 14.2
39 | CCCCC(=O)Nc1c2c(nn1-c1ccc(C)cc1)CS(=O)(=O)C2 | 4.42
40 | CCOc1ccc(CCNC(=O)c2ccc(S(=O)(=O)N3CCCC3)cc2)cc1OCC | 12.6
41 | O=C(Nc1ccccc1O)c1ccc(NC(=O)C2CC2)cc1 | 14.2
42 | Cc1c(NC(=O)C2CCN(S(=O)(=O)c3ccccc3)CC2)c(=O)n(-c2ccccc2)n1C | 11.6
43 | CCOc1ccccc1NC(=S)N1CCN(c2nc(-c3ccc(F)cc3)cs2)CC1 | 12.4
44 | CCC(C(=O)NCc1ccc(C)cc1)c1ccccc1 (stereo not shown) | 7.79

Row | SMILES | hERG current change (%, negative = inhibition) at 1uM [%]
45 | CCN(CC)CCCN=Cc1c(O)n(Cc2ccccc2)c(=O)c2ccccc12 | -77.3
46 | COc1cc(C=O)ccc1OS(=O)(=O)c1ccccc1[N+](=O)[O-] | 13.6
47 | CCN1CCN(C(=O)c2ccccc2NS(=O)(=O)c2ccc(Cl)cc2)CC1.Cl | 8.95
48 | CC1CCN(CCOCCOc2ccc(Br)cc2Cl)CC1.O=C(O)C(=O)O | -52
49 | Cn1cccc1Cc1nnc(SCC(=O)Nc2nccs2)n1CCc1ccccc1 | 2.92
50 | CN(C)Cc1c(C(=O)N/N=C/c2cccc(OCc3c(F)cccc3Cl)c2)nnn1-c1nonc1N | 11.4
51 | COCCOC(=O)C1=C(N)OC2=C(C(=O)CC(C)(C)C2)C1c1cccnc1 (stereo not shown) | 5.36
52 | CCNCC(=O)N1c2ccccc2CCc2ccc(NC(=O)OC(C)C)cc21.Cl | 6.96
53 | COc1ccc(-c2sc3cc(OC)c(OC)cc3c2C#CC2(O)CCCCC2)cc1 | 22.1
54 | COc1ccc(N2CCN(C(=O)c3ccc4ccccc4n3)CC2)cc1 | -8.46
55 | COc1ccccc1CCCNC(=O)C1CCC(=O)N(CCCN2CCCC2=O)C1 (stereo not shown) | 20.7
56 | Cc1ccc(-n2nnnc2SCC(=O)N2CCNC2=O)cc1C | -5.05
57 | O=C(CCNC(=O)N1CC(=O)Nc2ccccc21)Nc1ccc(Cl)cc1 | 14.3
58 | COc1ccc(N2CC(C(=O)OCC(=O)Nc3cccc(C)c3C)CC2=O)cc1 (stereo not shown) | 11.7
59 | O=C(CSc1nc(-c2ccccc2)cs1)N1CCN(C(=O)c2ccco2)CC1 | -12.9
60 | CCC(=O)Nc1cccc(-c2cn3cccc(C)c3n2)c1 | 3.61
61 | COc1cccc(CC(=O)Nc2cc(S(=O)(=O)N3CCCCC3)ccc2C)c1 | 9.63
62 | COc1ccc(CCNc2cn[nH]c(=O)c2Cl)cc1OC | 14.4
63 | Cn1nc(C(=O)NC2CCCCC2)c2c1-c1ccccc1SC2 | 7.79
64 | COc1ccc(N2CCN(CC(=O)c3c[nH]c4ccccc34)CC2)cc1 | 9.51
65 | CCC(C(=O)Nc1nnc(-c2ccco2)s1)c1ccccc1 (stereo not shown) | 11.4
66 | NC(=O)C1(N2CCCCC2)CCN(C(=O)c2ccc(C#Cc3ccccc3)o2)CC1 | -3.33

Row | SMILES | hERG current change (%, negative = inhibition) at 1uM [%]
67 | CCCCOc1ccc(C(=O)Oc2cccnc2)cc1 | 14
68 | O=C(COC(=O)CNC(=O)c1ccccc1F)Nc1cccnc1Cl | 8.22
69 | O=C(Nc1cccc(C(=O)O)c1)/C(=C\c1ccccc1)NC(=O)c1cccc2ccccc12 | 13.5
70 | COc1ccc(-n2ncc3c(=O)n(CC(C)=O)cnc32)cc1 | 15.6
71 | COc1ccc(C(=O)NCCNc2nc3c(C)cccc3cc2C#N)cc1 | 8.93
72 | CCc1nc(C)c(C(=O)N2CCCC(C(=O)Nc3cccc(-c4cccc(C)c4)c3)C2)o1 (stereo not shown) | 10.3
73 | Cc1ccc(NC(=O)Cn2cc(S(=O)(=O)c3ccc(F)cc3)c(=O)c3cc(F)ccc32)cc1 | 8.72
74 | Clc1ccc(Cn2ncc3c(N4CCOCC4)ncnc32)cc1 | 0.839
75 | Cc1c(C(C)CCCO)oc(=O)c2c1Oc1c(C)c(C(C)C[C@H](C)O)oc(=O)c1C2 (stereo partly shown) | 13.7
76 | O=C(c1ccc(CS(=O)(=O)c2ccc(Br)cc2)o1)N1CCC2(CC1)OCCO2 | 7.58
77 | CN1CCCC1C(O)(c1ccccc1)c1ccccc1.Cl (stereo not shown) | 6.46
78 | O=C(Nc1cccc2ccccc12)C1CCN(C(=O)Cc2ccccc2)CC1 | -9.15
79 | COc1ccc(C(C(=O)NCc2ccccc2)N(Cc2ccco2)C(=O)c2snc(C(N)=O)c2N)cc1 (stereo not shown) | -5.54
80 | CCOC(=O)Nc1n[nH]c(NC(=O)OCC)c1[N+](=O)[O-] | 10.3
81 | COC(=O)c1cc(S(=O)(=O)N2CCN(c3ccc(C(C)=O)cc3)CC2)cn1C | 12.5
82 | CC(NC(=O)c1ccco1)C(=O)N1CCN(C(c2ccccc2)c2ccccc2)CC1 (stereo not shown) | 10.9
83 | CCCCN1CC(O)=C(c2nc(-c3ccc(Cl)cc3)cs2)C1=N | 7.62
84 | COc1ccc(S(=O)(=O)N2CCOC23CCN(S(=O)(=O)c2cc(C)ccc2OC)CC3)cc1 | 22.6
85 | C=CCNC(=S)NNc1nc2sc3c(c2c(=O)[nH]1)CC(C)(C)OC3 | 17.6
